# Reference: the supplement of paper PMC3334620
# In all, about 33,000 sequences were measured (“E-score (-0.5 to 0.5)”: median about -0.041, highest 2% from about 0.37 on). The list shows a part of the results.
# Target: T1, Ecm22 (UniProt Q05958)
# T1 sequence: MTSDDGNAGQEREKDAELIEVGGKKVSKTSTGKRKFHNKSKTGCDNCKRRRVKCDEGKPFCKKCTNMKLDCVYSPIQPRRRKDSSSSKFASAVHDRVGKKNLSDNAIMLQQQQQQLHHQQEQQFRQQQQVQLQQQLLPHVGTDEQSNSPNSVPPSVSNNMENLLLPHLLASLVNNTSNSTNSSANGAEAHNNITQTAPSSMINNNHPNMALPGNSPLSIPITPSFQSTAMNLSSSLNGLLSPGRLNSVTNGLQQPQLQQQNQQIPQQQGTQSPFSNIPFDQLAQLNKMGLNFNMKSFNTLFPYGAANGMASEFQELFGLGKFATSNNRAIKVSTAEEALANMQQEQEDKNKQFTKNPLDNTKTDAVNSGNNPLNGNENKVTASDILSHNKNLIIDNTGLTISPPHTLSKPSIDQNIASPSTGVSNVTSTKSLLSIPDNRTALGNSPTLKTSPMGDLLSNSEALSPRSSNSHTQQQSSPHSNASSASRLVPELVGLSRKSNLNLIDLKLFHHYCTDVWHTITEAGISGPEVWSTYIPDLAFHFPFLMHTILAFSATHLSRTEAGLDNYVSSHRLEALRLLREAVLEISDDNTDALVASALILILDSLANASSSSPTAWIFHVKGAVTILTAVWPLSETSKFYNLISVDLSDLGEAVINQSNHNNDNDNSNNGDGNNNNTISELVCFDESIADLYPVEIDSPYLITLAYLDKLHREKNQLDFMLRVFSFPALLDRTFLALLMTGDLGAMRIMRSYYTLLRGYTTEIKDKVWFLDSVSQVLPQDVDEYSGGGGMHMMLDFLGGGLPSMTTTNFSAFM
# Test: PBM E-score (8-mer binding enrichment) (E-score (-0.5 to 0.5)); higher = stronger / more preferred TF binding; most listed sequences are background and not binding sites
# Details: protein concentration: 200 nM; construct: GST-full length
# Description: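 Universal 'all 10-mer' protein binding microarrays (Agilent AMADID 015681) probed with GST-tagged S. cerevisiae TFs (full-length or DBD) made by in vitro transcription/translation (PURExpress), about 100-200 nM. Bound TF was detected with fluorescent anti-GST. Each ungapped 8-mer (which stands for itself and its reverse complement) is scored by the PBM enrichment score (E-score), a modified Wilcoxon-Mann-Whitney statistic from -0.5 to +0.5, computed with the Universal PBM Analysis Suite. Scale: above 0.35 generally sequence-specific binding.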
row,Sequence,PBM E-score
1,ATACAGAC,0.143
2,ATAGAGAC,-0.0963
3,GTAGATCA,0.0453
4,GAGATAAC,-0.0197
5,GTAAGTAA,0.0369
6,CGAGTAGC,0.192
7,AAAAGATC,0.0363
8,TGAAGTAA,-0.143
9,GAGCTCCC,-0.0491
10,ACTTAACC,-0.163
11,AGCGCCAC,-0.0549
12,ATCAGGAG,0.0111
13,CTTATTCC,-0.263
14,AGCTTCAC,0.0436
15,CGGCGACC,0.0427
16,TACCTGGA,0.0274
17,ACATGCGC,-0.0219
18,AAGGGGAC,-0.152
19,TGCTATAA,-0.257
20,AATAAATT,0.0545
21,ACGCGCTC,0.141
22,CACCATGG,-0.173
23,GTAATCTA,0.117
24,ATCTACAA,0.0503
25,CCCTGTCG,0.175

row,Sequence,PBM E-score
1,ATCAGGTA,-0.131
2,AGCCTAAA,-0.0783
3,AAGTGGAC,-0.156
4,ATAGTGAG,-0.181
5,CACATGCA,-0.149
6,AAGCGCGT,0.0575
7,ACATTCGC,-0.0728
8,AAGAGTAG,-0.211
9,ACCAACGT,0.0482
10,TGAGGAAA,-0.0306
11,CGTGAAGC,-0.113
12,AAGTGGGT,-0.0664
13,AAGGACGC,-0.128
14,ATGAAAAA,-0.158
15,ACCGGTCT,-0.439
16,AGTTTCAG,-0.132
17,ACGGCTAC,0.183
18,CAGTTAAG,-0.148
19,CCGGACCC,0.0734
20,CTGTGAAC,0.0491
21,GGCCCCTA,-0.346
22,CTTTAGCC,-0.154
23,ATAGTGGA,-0.0057
24,CATCGTGA,0.108
25,CGTTCGTC,0.314

row,Sequence,PBM E-score
1,GACAACGA,0.219
2,GAGATGCC,0.0691
3,ATCAATAC,0.137
4,TAGGTCGA,0.00837
5,CCCTTATC,-0.302
6,ATACAACA,-0.0305
7,GTAGGCTA,-0.0223
8,AGAGCTCC,-0.289
9,ACAAACGG,0.226
10,ATCGGCAG,-0.124
11,ACTCACTA,-0.115
12,CCGGACAG,0.0392
13,CATAGAGA,-0.225
14,CAATTACA,-0.052
15,ACCACCGC,0.019
16,AGACGCTA,-0.209
17,AATGGCAA,-0.133
18,CCCGGAAG,-0.269
19,CCCGCCTC,-0.0945
20,GGTAGGAC,-0.234
21,AGGTCACG,-0.237
22,ATAGCGGC,0.109
23,ATATTAGC,0.13
24,AATGACAC,-0.156
25,CCTAGCAC,-0.0753

row,Sequence,PBM E-score
1,CTCGACGC,0.0768
2,TAAGATTA,-0.115
3,CCAGATGG,-0.168
4,CCATCTAC,-0.166
5,ACTATAGC,-0.0838
6,ACGTTCAC,0.105
7,CTGTACAC,0.0364
8,CGGAAATC,0.111
9,AGAACTAC,0.0445
10,CACCGCTG,-0.099
11,GAAGCCAA,-0.136
12,CGCAAAGA,0.0474
13,ATTAATGC,0.0497
14,ACCCGCTC,0.00869
15,GAATGCAC,0.106
16,CACAAGAG,-0.0992
17,GCTGCTCA,-0.13
18,ATGGATCG,0.223
19,ATAGGGAA,-0.121
20,GGCACTCA,-0.276
21,CAGCATGC,-0.227
22,ATGGCTCG,0.165
23,CGACAAGA,0.152
24,ATCCTTCC,-0.319
25,TGCGCGCA,0.0382

row,Sequence,PBM E-score
1,CTCACTCA,-0.225
2,ATGCGGCG,0.102
3,AATCCAGA,-0.187
4,GTCCTGAA,-0.0489
5,CTGGACAC,-0.132
6,AACATTCT,-0.0433
7,AAACTGTT,-0.124
8,AACTCGTG,0.228
9,CAGAAGAA,-0.132
10,ACTAAAAT,0.132
11,TCGGACGA,0.0599
12,AGCAACTG,-0.0733
13,CTATTCCA,-0.167
14,AATCGCCC,-0.0815
15,AGGATCAT,-0.00451
16,GCGGGGTA,-0.0396
17,AGCCCGGG,-0.299
18,GCAATCAA,-0.144
19,CCGCGACA,0.0746
20,ATTACCCC,-0.141
21,TACAATGA,-0.144
22,GGTGAGGA,0.0597
23,CTAAATAA,0.0723
24,CGGTCATA,0.0754
25,AAGCACGT,-0.0246

row,Sequence,PBM E-score
1,TAGCAAGA,-0.121
2,GCTACTAC,0.0554
3,ATTTGGAC,-0.146
4,ATTGATTG,-0.0716
5,GCTTTAAC,0.156
6,ATAAATTG,0.117
7,CGTGAACG,0.229
8,CCATTCCC,-0.0912
9,ACGCTATG,-0.122
10,CTAGGATA,-0.088
11,CGTTCACC,0.298
12,AAAACGTA,0.164
13,GACTTTGC,-0.0126
14,AAAACATA,0.139
15,AGTATCTC,0.0689
16,AATACGTG,0.15
17,GACGGATC,-0.00709
18,GCCAGCTA,-0.2
19,GGCCGGAC,0.0155
20,CGGGTGAA,0.0777
21,CCCGCGCG,0.0573
22,GAGAGAAA,-0.0003
23,GCTATTCA,-0.0134
24,GGACCCAA,-0.155
25,TAACCGTA,0.375

row,Sequence,PBM E-score
1,ATCCAGGG,-0.0947
2,CGTCGCCA,-0.0557
3,CTGCCTAC,-0.0406
4,AGTCCGGG,-0.107
5,ACACGTTC,-0.0311
6,TGACATCA,-0.171
7,AGCCATTA,0.18
8,GTCAGCAA,-0.0754
9,ACCATCGA,0.00274
10,AAGAAACC,-0.133
11,TAATTAGA,-0.143
12,AATGCCGG,-0.0755
13,CATAGGCC,-0.0527
14,GTTGCAAC,0.236
15,CTACATAA,-0.143
16,CTAAAGTC,-0.162
17,TATAACCA,0.127
18,ACTATTAC,0.212
19,CCTGGAGC,-0.155
20,ACATTTGA,-0.158
21,TAAGCGAA,0.335
22,AATCTTGC,-0.0116
23,ACGGCCGG,0.151
24,CCAACCTC,-0.0513
25,GGCTCAAA,-0.19

row,Sequence,PBM E-score
1,ACTCGCCC,-0.269
2,AAGAGCTA,-0.0558
3,CTTGGCGA,-0.154
4,CAAGGATG,-0.157
5,AGACCAAC,-0.11
6,GCGATCAC,-0.0638
7,AAAAATAT,0.0527
8,GAAGGCTA,-0.115
9,CTATGAAC,0.105
10,GCTGAAAA,-0.0964
11,AACACCAC,-0.0951
12,AGTAGTCA,-0.24
13,CGGATCCA,0.0958
14,AGGTTTAC,0.00715
15,AGAGGACT,-0.27
16,GGGTATCA,-0.196
17,ATCCGATA,0.173
18,AAGTACAA,0.0494
19,CTCCCCTC,0.0164
20,CACGACAA,0.09
21,CTCTTTTC,-0.0338
22,CTGAGAAA,-0.13
23,AACACGAA,0.247
24,GACGTGTA,-0.129
25,AAGATGCG,0.169

row,Sequence,PBM E-score
1,CTCCCGGA,0.0049
2,ATGCGCGA,0.175
3,TCGATCCA,-0.0339
4,ATCACAAG,-0.0512
5,ACTGGAGA,-0.194
6,ATCAGCAA,-0.172
7,AAAGACCC,-0.157
8,ATGCTTGA,-0.162
9,AATGCCAA,-0.224
10,ACCTGCCC,-0.276
11,AAACAAGC,0.0423
12,AACGGTCC,0.124
13,GCTATACC,-0.073
14,AGCACCTG,-0.322
15,CGCTCACC,0.112
16,GGCCCGAC,-0.125
17,AACTCTTA,0.0548
18,ATGTATTA,0.0531
19,CGCACCGC,0.111
